# Measurements taken from the supplement of paper PMC12340641.
# The full ranking holds about 1,000 compounds; the median of “relative growth recovery (pomalidomide 10 uM = 100%, DMSO = 0%)” is about -1.6, and the highest 2% start at about 21. Some of the results follow.
# Tested on: HEK293FT dCK*-IKZF1
# Test: relative growth recovery (pomalidomide 10 uM = 100%, DMSO = 0%); higher = more growth rescue (IKZF1 fusion degradation)
# Details: compound concentration: 5 uM; AraC concentration: 0.3 uM; overnight pretreatment + 4 days AraC
# Method: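 Growth recovery screen of the molecular-glue-like (Specs) library. HEK293FT cells expressing a dCK*-IKZF1 fusion (primary) or dCK* alone (counter) were pretreated overnight with compound at 5 uM, then given 0.3 uM AraC for 4 days. Hoechst nuclei were counted by imaging. Primary: normalised to pomalidomide (100%) and DMSO (0%), mean of 2 replicates. Counter: normalised to no-AraC (100%) and AraC+DMSO (0%), single replicate.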
row,Compound,relative growth recovery [%]
1,O=C1CCC(N2C(=O)c3cc(F)c(N4CCN(C5CCC(C(=O)O)CC5)CC4)cc3C2=O)C(=O)N1 (stereo not given),-5.74
2,Cc1ccc(OCC(=O)Nc2ccc(S(=O)(=O)Nc3ncccn3)cc2)cc1C,-1.98
3,Cc1nc(Nc2cccc(C3CN(CC(=O)N4CCC(C)CC4)CCO3)n2)sc1C (stereo not given),13
4,Cc1csc(Nc2cccc(C3CN(C(=O)c4[nH]nc5c4CCCCC5)CCO3)n2)n1 (stereo not given),3.46
5,Cc1ccc2[nH]c3nc(SCC(=O)Nc4cccc(Cl)c4Cl)nnc3c2c1,-3.27
6,O=C(/C=C/c1cccnc1)N1CCCC(c2cc3ccccc3c(Nc3nccs3)n2)C1 (stereo not given),-2.04
7,COc1ccc(NS(=O)(=O)c2ccc(NS(=O)(=O)c3ccc(C)cc3)cc2)nn1,0.72
8,Cc1cc(NS(=O)(=O)c2ccc(NC(=O)COc3cccc(Br)c3)cc2)nc(C)n1,-4.59
9,Cc1cc(C)nc(NS(=O)(=O)c2ccc(NC(=S)NC(=O)/C=C/c3ccco3)cc2)n1,-2.82
10,O=C(COc1ccc(-c2ccccc2)cc1)Nc1ccc(S(=O)(=O)Nc2ccccn2)cc1,-1.72
11,Cc1ccnc(NS(=O)(=O)c2ccc(NS(=O)(=O)c3ccc(F)cc3)cc2)n1,-0.59
12,COc1cccc(CC(=O)N2CCC(c3cccc(Nc4nc(C)c(C)s4)n3)CC2)c1,-1.79
13,CC(C)(C)c1ccc(OCC(=O)Nc2ccc(S(=O)(=O)Nc3ccccn3)cc2)cc1,-5.39
14,O=C(CCCOc1ccc(Cl)cc1)Nc1ccc(S(=O)(=O)Nc2ncccn2)cc1,0.13
15,CC(C)(C)C(=O)N1CCC(Cc2ccc(Nc3ncc(-c4ccc(F)cc4)s3)nc2)CC1,12.3
16,COc1cccc(OC)c1C(=O)Nc1ccc(S(=O)(=O)Nc2nccc(C)n2)cc1,-4.17
17,Cc1cnc(Nc2cccc(C3CCCN3C(=O)COc3ccccc3)n2)s1 (stereo not given),-18.4
18,COc1ccc(C(=O)Nc2ccc(S(=O)(=O)Nc3ccccn3)cc2)cc1OC,-6.25
19,O=C(O)CCOCCOCCNc1ccc2c(c1)C(=O)N(C1CCC(=O)NC1=O)C2=O (stereo not given),-0.075
20,O=C(Nc1ccc(S(=O)(=O)Nc2ncccn2)cc1)c1ccccc1F,-1.7
21,Cc1cnc(Nc2cccc(CC3CCN(CC(N)=O)CC3)n2)s1,-19.4
22,CNCC(=O)N1CCC(CO)(c2cccc(Nc3ncc(-c4ccccc4)s3)n2)CC1,-4.66
23,O=C(COc1ccc(Cl)cc1)Nc1ccc(S(=O)(=O)Nc2ccccn2)cc1,-1.21
24,O=C(Nc1ccc(Oc2ccc3c(c2)C(=O)N(c2ccc(O)cc2)C3=O)cc1)c1cccs1,-3.15

row,Compound,relative growth recovery [%]
1,COc1nccnc1NS(=O)(=O)c1ccc(NC(=O)c2cccc(C)c2)cc1,4.03
2,CCOc1ccccc1C(=O)Nc1ccc(S(=O)(=O)Nc2ncccn2)cc1,-2.12
3,O=C(O)CC1CCN(c2cccc3c2C(=O)N(C2CCC(=O)NC2=O)C3=O)CC1 (stereo not given),0.73
4,COc1ccc(Cl)cc1NC(=O)CSc1nnc2c(n1)[nH]c1ccccc12,-11
5,Cc1ccc(OCC(=O)Nc2ccc(S(=O)(=O)Nc3ccccn3)cc2)cc1C,2.05
6,CCCc1cnc(Nc2cccc(C3CCN(C(=O)CNC(=O)OC(C)(C)C)CC3)n2)s1,-5.49
7,COc1ccccc1/C=C/C(=O)Nc1ccc(S(=O)(=O)Nc2cc(C)nc(C)n2)cc1,-18.7
8,O=C(CCn1ncc2c1CCCC2)N1CCOC(c2cccc(Nc3nccs3)n2)C1 (stereo not given),14.7
9,COC(=O)CCC(=O)Nc1ccc(S(=O)(=O)Nc2cc(OC)nc(OC)n2)cc1,-1.54
10,Cc1cccc(OCC(=O)Nc2ccc(S(=O)(=O)Nc3ncccn3)cc2)c1C,0.295
11,Cc1cc(C)nc(NS(=O)(=O)c2ccc(NC(=O)c3ccccc3Cl)cc2)n1,0.275
12,Cc1cnc(Nc2cccc(C(C(=O)N(C)C)C3CCN(C(=O)C4CCCCC4)CC3)n2)s1 (stereo not given),1.65
13,Cc1csc(Nc2cccc(C3CCCN3C(=O)Cn3c(C)cc(C)nc3=O)n2)n1 (stereo not given),-0.665
14,CN(C)CC(=O)N1CCCC1c1cccc(Nc2nccs2)n1 (stereo not given),-6
15,Cc1cnc(Nc2cccc(C3CN(C(=O)CC4CCCCC4)CCO3)n2)s1 (stereo not given),-11.7
16,COc1cc(NS(=O)(=O)c2ccc(NC(=O)C3CC3)cc2)nc(OC)n1,-1.71
17,Cc1cnc(Nc2cccc(C3CCN(C(=O)CCC4CCCCC4)CC3)n2)s1,18.3
18,O=C(O)CCOCCOCCOCCNc1cc2c(cc1F)C(=O)N(C1CCC(=O)NC1=O)C2=O (stereo not given),0.215
19,Cc1cc(C)nc(NS(=O)(=O)c2ccc(Nc3nc(-c4ccc(C)c(C)c4)cs3)cc2)n1,-0.65
20,CCCc1cnc(Nc2cccc(C3CCN(C(=O)[C@@H]4CCCCN4C(=O)COC)CC3)n2)s1,0.62
21,Cc1cnc(Nc2cccc(C3CCN(C(=O)C4(NC(=O)C(C)C)CCCCC4)CC3)n2)s1,-18.7
22,O=C(c1ccc2c(c1)OCCO2)N1CCC(c2cccc(Nc3nccs3)n2)CC1,-12.3
23,Cc1csc(Nc2cccc(C3CCCN3C(=O)c3cnc(C)nc3C)n2)n1 (stereo not given),-1.01
24,Cc1cc(OCC(=O)Nc2ccc(S(=O)(=O)Nc3ncccn3)cc2)ccc1Cl,-0.26

row,Compound,relative growth recovery [%]
1,Cc1cc(C)nc(NS(=O)(=O)c2ccc(NC(=S)NC(=O)/C=C/c3cccs3)cc2)n1,-1.09
2,CCOC(=O)c1ccc(N2C(=O)c3ccc(Oc4ccc(N)cc4)cc3C2=O)cc1,2.28
3,Cc1csc(Nc2cccc(C3CN(C(=O)CCn4ncc5ccccc54)CCO3)n2)n1 (stereo not given),18.8
4,CC(C)(N)C(=O)N1CCC(CO)(c2cccc(Nc3ncc(-c4ccccc4)s3)n2)CC1,-19.1
5,Cc1cnc(Nc2cccc(C3CCN(C(=O)[C@@H]4CCCCN4)CC3)n2)s1,-15
6,CNC(=O)C(c1cccc(Nc2ncc(C)s2)n1)C1CCN(C(=O)c2cccc(Cl)c2F)CC1 (stereo not given),0.915
7,Cc1ccnc(NS(=O)(=O)c2ccc(NC(=O)c3cccs3)cc2)n1,3.83
8,CC(=O)Nc1ccc(S(=O)(=O)Nc2ccc(S(=O)(=O)Nc3nccc(C)n3)cc2)cc1,-6.14
9,Cc1cnc(Nc2cccc(C3CCCN3C(=O)Cn3cnc4ccccc43)n2)s1 (stereo not given),-19.5
10,O=C(COc1ccc(Cl)cc1)Nc1ccc(S(=O)(=O)Nc2ncccn2)cc1,-2.35
11,O=C(Nc1ccc(S(=O)(=O)Nc2ccccn2)cc1)c1ccc(Cl)cc1,0.46
12,CC(=O)Nc1ccc(C(=O)Nc2ccc(S(=O)(=O)Nc3nccc(C)n3)cc2)cc1,-2.91
13,COc1ccc2[nH]c(SCC(=O)Nc3ncccn3)nc2c1,1.53
14,Cc1cnc(Nc2cccc(C3CCCN3C(=O)CCCc3ccc(F)cc3)n2)s1 (stereo not given),0.955
15,Cc1cc(C)nc(NS(=O)(=O)c2ccc(NC(=O)c3cc4ccccc4oc3=O)cc2)n1,-5.23
16,Cc1cc(C)nc(NS(=O)(=O)c2ccc(NC(=O)c3ccccc3Br)cc2)n1,-5.04
17,Cc1cnc(Nc2cccc(C3CN(C(=O)C4CCCCC4)CCO3)n2)s1 (stereo not given),-11.7
18,COc1cc(NS(=O)(=O)c2ccc(NC(=O)c3ccc(C)cc3)cc2)nc(OC)n1,-3.06
19,Cc1ccc(OCC(=O)Nc2ccc(S(=O)(=O)Nc3ccccn3)cc2)c(C)c1,-2.3
20,O=C1CCC(N2C(=O)c3cccc(NCc4ccc(C(=O)O)cc4)c3C2=O)C(=O)N1 (stereo not given),3.17
21,COc1cc(NS(=O)(=O)c2ccc(Nc3nc(-c4ccc(Cl)cc4)cs3)cc2)nc(OC)n1,-3.09
22,CNC(=O)C1(c2cccc(Nc3ncc(C)s3)n2)CCN(C(=O)C2CCCCC2)CC1,-16.6
23,COCC(C)NC(=O)CN1CCC(c2cccc(Nc3nccs3)n2)CC1 (stereo not given),4.26
24,CC(=O)N1CCCC1c1csc(Nc2ccccn2)n1 (stereo not given),-4.06

row,Compound,relative growth recovery [%]
1,CC(=O)Nc1ccc(Oc2ccc3c(c2)C(=O)N(c2cccc(C)c2)C3=O)cc1,-2.68
2,Cc1csc(Nc2cccc(C3CCCN3C(=O)c3ccc4[nH]c(C(C)C)nc4c3)n2)n1 (stereo not given),36.3
3,Cc1cc(C)nc(NS(=O)(=O)c2ccc(NC(=O)COc3ccccc3Cl)cc2)n1,-6.68
4,CC(Oc1ccccc1)C(=O)Nc1ccc(S(=O)(=O)Nc2ncccn2)cc1 (stereo not given),-0.515
5,Cc1cnc(Nc2cccc(C3CN(C(=O)Cn4cnc5ccccc54)CCO3)n2)s1 (stereo not given),-9.44
6,Cc1ccc2[nH]c3nc(SCC(=O)Nc4ccc(F)cc4)nnc3c2c1,-0.35
7,COc1cc(NS(=O)(=O)c2ccc(NC(=S)NC(=O)/C=C/c3ccccc3)cc2)nc(OC)n1,-2.48
8,COc1ccc2[nH]c3nc(SCC(=O)Nc4cc(Cl)ccc4OC)nnc3c2c1,-18.5
9,CC(=O)c1ccc(N2C(=O)c3ccc(Oc4ccccc4)cc3C2=O)cc1,-18.1
10,Cc1cnc(Nc2cccc(C3CCN(C(=O)C4CCC4)CC3)n2)s1,-17.7
11,NCC(=O)N1CCC(c2cccc(Nc3ncc(Br)s3)n2)CC1,-17.1
12,CCNc1nc(NCC)nc(NS(=O)(=O)c2ccc(N)cc2)n1,3.4
13,CC(C)(C)c1ccccc1OCC(=O)Nc1ccc(S(=O)(=O)Nc2ccccn2)cc1,2.13
14,CC(=O)Nc1ccc(S(=O)(=O)Nc2ccc(Cl)cn2)cc1,3
15,Cc1ccc(OCC(=O)Nc2ccc(S(=O)(=O)Nc3nc(C)cc(C)n3)cc2)c(C)c1,-3.39
16,COc1cccc(CCC(=O)N2CCOC(c3cccc(Nc4ncc(C)s4)n3)C2)c1 (stereo not given),15.8
17,Cc1nc(Nc2cccc(C3CCCN3C(=O)c3n[nH]c4c3CCCC4)n2)sc1C (stereo not given),14.3
18,Nc1ccc(S(=O)(=O)Nc2nccc(/C=C/c3ccc([N+](=O)[O-])cc3)n2)cc1,2.31
19,COCCNC(=O)C1(c2cccc(Nc3ncc(C)s3)n2)CCN(C(=O)C2CCCCC2)CC1,-5.38
20,CCCc1cnc(Nc2cccc(C3CCN(C(=O)C4CCCCN4CCCO)CC3)n2)s1 (stereo not given),-14.9
21,Cc1ccc(C)c2c1[nH]c1nc(SCC(=O)Nc3cccc(F)c3)nnc12,-2.81
22,Cc1csc(Nc2cccc(C3CN(C(=O)COc4c(C)cccc4C)CCO3)n2)n1 (stereo not given),22.3
23,COc1ccc(C(C)(C)C(=O)N2CCCC2c2cccc(Nc3nc(C)cs3)n2)cc1 (stereo not given),-1.8
